Reference: article PMC6212790
The list shows a part of the results. At the low end of the ranking the order means little.

Molecular target: T1, GST-Rok (full length) (UniProt O34857)
T1 sequence: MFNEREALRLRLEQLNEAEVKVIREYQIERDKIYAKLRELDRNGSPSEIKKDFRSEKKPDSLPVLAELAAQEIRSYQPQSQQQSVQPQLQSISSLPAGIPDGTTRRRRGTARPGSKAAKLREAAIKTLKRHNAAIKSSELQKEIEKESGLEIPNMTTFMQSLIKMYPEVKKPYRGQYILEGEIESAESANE
Experiment: protein binding microarray;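 further: rank score from −0.5 (least bound) to 0.5 (best bound)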
Details: Rok is a gene silencer of Bacillus subtilis; high values mean tight binding; most listed sequences are background and not binding sites; double strand, one strand shown

Sequence	binding signal [E-score]
CGAACAGC	-0.159
GGCTTGCA	-0.123
CGGGGCGA	-0.286
AATGATAA	0.259
AGTATAGA	0.159
GCTAACCA	0.0624
CAGATCGA	0.0233
AGAACTCA	0.133
CAGGGTAA	-0.221
ACGTTCCA	0.0469
CGAAAATC	0.0722
CCAGACAA	-0.259
ACACACTG	-0.228
GTACAAAC	0.327
CCAGAGGC	-0.131
AGCGAGCG	-0.209
AACCGGAC	-0.183
CAGCGGGG	-0.214
CCTATTCG	0.00494
CCGAATGC	-0.127
GTGCAGGA	-0.104
TACACTCA	0.0656
CCTCTCTC	-0.21
CTATTGAA	0.0527
ACAAGCCG	-0.0981

Sequence	binding signal [E-score]
AACAGGTC	-0.114
ACCTGACC	0.136
ACCAGATG	-0.0832
CATTGTAG	0.103
GCAATACA	0.115
CACGTGTC	0.0409
AAACTCAT	-0.00723
CCTCGTGA	-0.104
TCGAGACA	-0.0316
CATAACAC	0.0293
GGGGTCAC	-0.419
TTAAAGAA	-0.0809
ACGGCTGG	-0.163
ATTCAATC	0.15
ATCGGTGA	0.0617
CTGCGAGC	-0.129
TATATCAA	0.316
ACTAGAGC	0.122
ACACCAGC	-0.176
AAGCCTTA	-0.175
ACAGGAGT	0.0409
GCGGCGCA	-0.342
AAGCAGGT	-0.0336
AACCGCAA	-0.0711
GCAGGCAA	-0.116

Sequence	binding signal [E-score]
CTGCAAAA	0.0156
AGATCTCC	-0.0139
GCCGACTA	-0.115
GGAGACAC	-0.245
AGACCCCA	-0.387
ATCTCGCG	0.171
ATCCTTGA	-0.0312
GAGCAATA	0.223
GCTTCACA	-0.114
GATTAGCC	-0.161
CGGGCCTC	-0.278
CTCACCAC	0.0621
AAGCGAAT	-0.0766
AGTCTACG	0.09
CGAACGGC	-0.312
CCGTGATC	0.0178
CGTCGCGA	-0.0337
GCCGAGCC	-0.338
CGGACCAA	-0.0996
GGTCGTAA	0.0357
ACTCGGCC	-0.0884
GGCCGCAA	-0.231
GAGTACAC	0.041
CGCTACTA	0.28
ACTCGCAT	-0.0234

Sequence	binding signal [E-score]
CACGGCGG	-0.321
CGTATGAC	-0.117
CACCTACC	0.0555
CGTAGTAA	0.198
CACACGGA	-0.0701
GAACAGAA	0.0425
AATGCCCC	-0.243
ACTTTCCG	0.0454
ATTGAGCC	-0.225
ATTATGTA	0.358
TGGCAAAA	0.0417
ATCGGCGG	-0.266
CTCTCTTA	-0.189
CGCCATCC	-0.324
ACGTCGTA	0.0992
GATTACGC	-0.0574
ATATCGAA	0.19
CCAAGGGC	-0.279
CCAGCACG	-0.154
ACCTGGGC	-0.177
CGATTCCA	0.0584
CTCGTCCC	-0.243
ACTTGCGG	0.0475
ACGACAGA	-0.0532
GTGGAGGA	-0.271

Sequence	binding signal [E-score]
GCGTACTA	0.082
CGCCACTA	-0.056
ATGGTCCA	-0.0725
CAACTATA	0.307
CCCTTTTA	-0.102
TGTCTAAA	0.0409
TATGGCAA	0.0101
CAAAGCGC	-0.101
AAGGGACT	-0.149
AATGCGCA	-0.0491
GACGTGGA	-0.18
AAATTAGC	0.206
ATGATCTC	0.00397
GTCTCGGA	-0.109
ATAAACGG	0.169
AACTCCCC	-0.216
TGAGACCA	-0.117
ACCACCGC	-0.0949
AAACAATA	0.246
CTTTAATC	0.000899
CGCGCTGA	0.105
AATAACAT	0.101
AATATCGG	0.291
GGAGTATA	0.000352
CCTGGAAG	-0.179

Sequence	binding signal [E-score]
AGGCAAAG	-0.276
CTGTAATA	0.313
CATTAAGG	-0.054
ATCCATGG	0.12
TATTCACA	0.2
GCAAACGA	-0.117
CAAGAACG	0.0325
GGTATCCA	0.0599
AAAACGGT	0.0886
TACTGGGA	0.159
ACGGGCGG	-0.335
AAGCACAG	-0.0868
ACCAATTG	0.0883
ACGGTTTA	0.0261
CTACTTAC	0.294
CCCACAAG	-0.217
GCTAGTCA	-0.0821
ATAAAGGA	-0.0384
AGCCTAAC	-0.0514
AGATGCCG	0.00234
ATCTAAAG	-0.0448
ATATCTGG	0.112
CGCTACCC	-0.127
ACCTCATC	0.031
GACGCGAA	-0.0941

Sequence	binding signal [E-score]
ACTCTAGA	0.114
ATTCTATG	0.0909
CCTCCCCG	-0.407
AGGACTAA	-0.0661
GATATGGC	-0.0832
CCCTAGTC	-0.25
CACTCTAG	-0.0364
ACTTCCCG	-0.201
CCGATGGC	-0.331
ATTCCGAC	0.0845
AACCCCTT	-0.293
ATAGTAAA	0.397
GCGGATCA	-0.193
GGGTAAGA	-0.0994
AGAGCAAT	0.058
AATCTGAG	0.0668
CGTTACAA	0.151
ACGTAGGC	-0.297
GAGGGGTA	-0.271
ACCAGTCT	0.0205
CGTTGTAC	0.039
AATATAAT	0.228
AGAGTAGG	-0.0763
GAAAATTC	0.00925
CTTTCGAA	0.0639

Sequence	binding signal [E-score]
GTCTACCA	0.0944
AAACTGCT	-0.0189
CGTACGAG	-0.195
ATATGCTG	0.143
ATGCTGTC	0.0388
CACATAAA	-0.00284
ATCCGTTG	0.0609
AGTAGAGG	-0.169
GATGCGAC	-0.205
AGGGAGTC	-0.375
CCCTCCTA	-0.349
GCTGGGTA	0.0601
GCGAGTCC	-0.112
CAAGTATC	0.0694
AGACTGTC	0.0207
GAGCGTCC	-0.203
AAAGGCTC	-0.183
AAATTCTC	0.0375
AATTTAGC	0.252
AAGTCGGG	-0.266
CGCAAGCC	-0.112
CCTTGATC	-0.171
GTTGTCTA	-0.0877
AAAAGTAG	0.308
GGGATACA	0.0313

Sequence	binding signal [E-score]
AAGACCAA	-0.0454
CTTGTGAA	0.115
AGACATCG	-0.122
GAGGAACC	-0.113
ACTTAAGA	-0.117
AGGTCCAG	-0.187
AGCCCGAC	-0.3
CAAATTTA	0.168
CGTGCCTA	-0.0621
TACGGGGA	-0.089
CCTCTCCA	-0.235
ATGGGTTG	0.0584
CTGATCCC	-0.351
CTCTTTTA	0.178
CGTGCTCA	-0.158
AGACCCAA	0.000788
ACAAACCG	0.0116
TACCTGAA	0.151
GAAGACGC	-0.327
